# Data as given in PMC5787466, “Accelerated bottom-up drug design platform enables the discovery of novel stearoyl-CoA desaturase 1 inhibitors for cancer therapy” (Oncotarget, 2017).
# Molecular target: SCD1
# Test: not given
# Conditions: published IC50 of known SCD1 inhibitors used as QSAR controls; unit printed only in the ligand names; ref as named in Ligand Name (Uto et al bmcl2009, Uto_EJMC2011, powell_bmcl2011, Xin_bmcl2008); read-out: Known IC50; cited from earlier work
row,Structure (SMILES),IC50 [nM]
1,CNC(=O)c1cccc(NC(=O)N2CCC(Oc3ccccc3)CC2)c1 [Xin_bmcl2008_Abbott 400 nM],400

# Tested on: 4 ccRCC cell lines
# Test: High-throughput proliferative screen, single point
# Conditions: 10μM; proliferative screen in ccRCC cell lines
row,Structure (SMILES),Single Pt Act (10μM)
1,CNC(=O)c1cccc(S(=O)(=O)N2CCCN(C(=O)c3ccccc3C(F)(F)F)CC2)c1 [SetB.49],No
2,CNC(=O)c1cccc(N2CCN(C(=O)c3ccccc3C(F)(F)F)CC2)n1 [SetB.34],No
3,CNC(=O)c1cnc2cc(CN3CC[C@H](Oc4ccccc4Cl)C3)nn2c1 [SetA.1],No
4,CNC(=O)c1cc(NC(=O)C2CCN(C(=O)c3ccccc3C(F)(F)F)CC2)c2ccccc2n1 [SetB.61],No
5,CNC(=O)COc1ccccc1C(=O)N1CCCN(C(=O)c2ccccc2C(F)(F)F)CC1 [SetB.75],No
6,CNC(=O)c1ccc(OC2CCN(C(=O)c3ccccc3C(F)(F)F)CC2)cc1 [SetB.66],No
7,O=C(c1ccc(OCc2ccccc2)nn1)N1CCC2(CC1)CCN(C(=O)c1ccccc1C(F)(F)F)C2 [TC03.53],No
8,O=C(c1ccccc1C(F)(F)F)N1CCC([C@@H]2CCCN2C(=O)c2ccc(OCc3ccccc3)nc2)CC1 [TC03.10],No
9,O=C(NCc1ccc(OCc2ccccc2)nc1)[C@H]1CCN(C(=O)c2ccccc2C(F)(F)F)C1 [TC03.46],No
10,CNC(=O)c1ccc(S(=O)(=O)N2CC[C@H](Oc3ccccc3Cl)C2)cn1 [SetA.61],No
11,O=C(c1ccc(OCc2ccccc2)nc1)N1CCC2(CCN(C(=O)c3ccccc3C(F)(F)F)CC2)C1 [TC03.8],No
12,O=C(NCc1cccnc1OCc1ccccc1)C1CCN(C(=O)c2ccccc2C(F)(F)F)CC1 [TC03.31],No
13,O=C(c1ccccc1C(F)(F)F)N1CCC([C@@H]2CCCN2C(=O)c2ccc(OCc3ccccc3)nn2)CC1 [TC03.48],No
